Target: the molecule itself
Assay: native gel or EMSA; BN-PAGE (8% bis-tris gel, pH 7.0, on ice) of whole-cell lysates of transfected HEK293 cells in 1% Triton X-100 BN lysis buffer, then immunoblot (anti-AQP4 or anti-GFP) and densitometry; self-association: tetramer, dimer, monomer bands

B1: AQP4 TM5 compound mutant (I189A/I199A/F203A), C-terminal GFP fusion (natural protein, human)
chain: MSDRPTARRWGKCGPLCTRENIMVAFKGVWTQAFWKAVTAEFLAMLIFVLLSLGSTINWGGTEKPLPVDMVLISLCFGLSIATMVQCFGHISGGHINPAVTVAMVCTRKISIAKSVFYIAAQCLGAIIGAGILYLVTPPSVVGGLGVTMVHGNLTAGHGLLVELIITFQLVFTIFASCDSKRTDVTGSAALAIGFSVAAGHLAAINYTGASMNPARSFGPAVIMGNWENHWIYWVGPIIGAVLAGGLYEYVFCPDV[… about 60 residues …]
notes: aquaporin-4 (AQP4), human cDNA in pDEST47; M1 isoform (323 residues); source: HEK293, transiently transfected, in Triton X-100 lysate; not shown: GFP, C-terminal, kept
Q: B1 was tested. Which “stoichiometry N” value did it give?
A: The value was 4.
